# The list shows a part of the results.
# B1: PX14379A-bvu-539-28-539 (Bacteroides vulgatus) (protein)
# chain: EPYSEIIEEDYVPTEADEIALLATTYSQLRFVMDWYGLFDLQEESGDVIVTPTRPNGWDDGGTYKQMHKHTWDNQQGQPQSIWDYCYKGIANANKILKRADEGFFTEESKPKVVAEVKGVRALWYSILCDTHGNIPIQTSFSEEVPVQSTRKQVFDFIINELKEVMPNLPTEVNKSTYGRLTQWGAKCLMARMYLNAGVYTGTPMWNECLEQCNDIINSGLFSLETNYTDIFKTENSGCVETIFAIPYDEVYNEGDNNGPVFGAHMKFLSSNSRKVFNMQTTPWGGSAANPQFINSYDPDDMRLKYTWLQGDQYSPDGVLITTFPNKLPSIYKTDTDDGYRVGKYEIKVGAKSLLSNDFPYFRYTEVLLMKAECLLRLGQNETEAAHIVSQIRERAFRESAHPEKATVDAAWLKGDTHINYGTLDEKGQIDDAGNTEVVELGGLYDEWGWEFAAEARRRTDMIRFGTYQKKSWFNHTPTANDLNGNSILFPIHLDHLNTNPNLQQNPGYAGK
# Experiments:
# Assay in all cases: glycan array binding signal (z-score within array); higher = stronger binding
# Details in all cases: glycan notation: IUPAC condensed, linker removed
# Gal(b1-4)Glc = target: Gal(b1-4)Glc
# Summary of the method: (§1)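 Glycan array data came from 3228 arrays in the Consortium for Functional Glycomics database, and only arrays with an available protein sequence were kept. Glycan names were put into IUPAC-condensed notation, and columns mapping to the same glycan were averaged. The binding signal is a within-array Z-score, averaged across arrays of one protein sequence run at different concentrations or buffers and across linkers. A negative Z-score can be read as non-binding.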
# Gal(b1-4)Glc6S = target: Gal(b1-4)Glc6S
# Summary of the method: as §1
# Gal(b1-4)GlcNAc = target: Gal(b1-4)GlcNAc
# Summary of the method: as §1
# [1] = target: Gal(b1-4)GlcNAc(a1-6)Gal(b1-4)GlcNAc
# Summary of the method: as §1
# Gal(b1-4)GlcNAc(b1-2)Man = target: Gal(b1-4)GlcNAc(b1-2)Man
# Summary of the method: as §1
# [2] = target: Gal(b1-4)GlcNAc(b1-2)Man(a1-3)Man(b1-4)GlcNAc(b1-4)GlcNAc
# Summary of the method: as §1
# [3] = target: Gal(b1-4)GlcNAc(b1-2)Man(a1-3)[Gal(b1-4)GlcNAc(b1-2)Man(a1-6)]Man(b1-4)GlcNAc(b1-4)GlcNAc
# Summary of the method: as §1
# [4] = target: Gal(b1-4)GlcNAc(b1-2)Man(a1-3)[Gal(b1-4)GlcNAc(b1-2)Man(a1-6)]Man(b1-4)GlcNAc(b1-4)[Fuc(a1-6)]GlcNAc
# Summary of the method: as §1
# [5] = target: Gal(b1-4)GlcNAc(b1-2)Man(a1-3)[Gal(b1-4)GlcNAc(b1-2)Man(a1-6)][Gal(b1-4)GlcNAc(b1-4)]Man(b1-4)GlcNAc(b1-4)[Fuc(a1-6)]GlcNAc
# Summary of the method: as §1
# [6] = target: Gal(b1-4)GlcNAc(b1-2)Man(a1-3)[Gal(b1-4)GlcNAc(b1-2)Man(a1-6)][GlcNAc(b1-4)]Man(b1-4)GlcNAc(b1-4)[Fuc(a1-6)]GlcNAc
# Summary of the method: as §1
# [7] = target: Gal(b1-4)GlcNAc(b1-2)Man(a1-3)[GlcNAc(b1-2)Man(a1-6)]Man(b1-4)GlcNAc(b1-4)GlcNAc
# Summary of the method: as §1
# [8] = target: Gal(b1-4)GlcNAc(b1-2)Man(a1-3)[GlcNAc(b1-4)][Gal(b1-4)GlcNAc(b1-2)Man(a1-6)]Man(b1-4)GlcNAc(b1-4)GlcNAc
# Summary of the method: as §1
# [9] = target: Gal(b1-4)GlcNAc(b1-2)Man(a1-3)[Man(a1-6)]Man(b1-4)GlcNAc(b1-4)GlcNAc
# Summary of the method: as §1
# [10] = target: Gal(b1-4)GlcNAc(b1-2)Man(a1-6)Man(b1-4)GlcNAc(b1-4)GlcNAc
# Summary of the method: as §1
# [11] = target: Gal(b1-4)GlcNAc(b1-2)Man(a1-6)[GlcNAc(b1-2)Man(a1-3)]Man(b1-4)GlcNAc(b1-4)GlcNAc
# Summary of the method: as §1
# [12] = target: Gal(b1-4)GlcNAc(b1-2)Man(a1-6)[Man(a1-3)]Man(b1-4)GlcNAc(b1-4)GlcNAc
# Summary of the method: as §1
# [13] = target: Gal(b1-4)GlcNAc(b1-2)[Gal(b1-4)GlcNAc(b1-4)]Man(a1-3)[Gal(b1-4)GlcNAc(b1-2)Man(a1-6)]Man(b1-4)GlcNAc(b1-4)GlcNAc
# Summary of the method: as §1
# [14] = target: Gal(b1-4)GlcNAc(b1-2)[Gal(b1-4)GlcNAc(b1-4)]Man(a1-3)[Gal(b1-4)GlcNAc(b1-2)[Gal(b1-4)GlcNAc(b1-6)]Man(a1-6)]Man(b1-4)GlcNAc(b1-4)GlcNAc
# Summary of the method: as §1
# [15] = target: Gal(b1-4)GlcNAc(b1-2)[Gal(b1-4)GlcNAc(b1-4)]Man(a1-3)[GlcNAc(b1-4)][Gal(b1-4)GlcNAc(b1-2)Man(a1-6)]Man(b1-4)GlcNAc(b1-4)GlcNAc
# Summary of the method: as §1
# [16] = target: Gal(b1-4)GlcNAc(b1-2)[Gal(b1-4)GlcNAc(b1-4)]Man(a1-3)[GlcNAc(b1-4)][Gal(b1-4)GlcNAc(b1-2)[Gal(b1-4)GlcNAc(b1-6)]Man(a1-6)]Man(b1-4)GlcNAc(b1-4)GlcNAc
# Summary of the method: as §1
# [17] = target: Gal(b1-4)GlcNAc(b1-2)[Gal(b1-4)GlcNAc(b1-6)]Man(a1-6)[Gal(b1-4)GlcNAc(b1-2)Man(a1-3)]Man(b1-4)GlcNAc(b1-4)GlcNAc
# Summary of the method: as §1
# [18] = target: Gal(b1-4)GlcNAc(b1-2)[Gal(b1-4)GlcNAc(b1-6)]Man(a1-6)[Gal(b1-4)GlcNAc(b1-2)Man(a1-3)]Man(b1-4)GlcNAc(b1-4)[Fuc(a1-6)]GlcNAc
# Summary of the method: as §1
binder,measurement,setting,value
B1,glycan array binding signal (z-score),Gal(b1-4)Glc,-0.346
same,glycan array binding signal (z-score),Gal(b1-4)Glc6S,-0.307
same,glycan array binding signal (z-score),Gal(b1-4)GlcNAc,-0.29
same,glycan array binding signal (z-score),[1],-0.203
same,glycan array binding signal (z-score),Gal(b1-4)GlcNAc(b1-2)Man,-0.28
same,glycan array binding signal (z-score),[2],0.346
same,glycan array binding signal (z-score),[3],-0.194
same,glycan array binding signal (z-score),[4],1.32
same,glycan array binding signal (z-score),[5],0.442
same,glycan array binding signal (z-score),[6],-0.502
same,glycan array binding signal (z-score),[7],3.64
same,glycan array binding signal (z-score),[8],-0.389
same,glycan array binding signal (z-score),[9],1.39
same,glycan array binding signal (z-score),[10],-0.472
same,glycan array binding signal (z-score),[11],0.521
same,glycan array binding signal (z-score),[12],0.24
same,glycan array binding signal (z-score),[13],-0.019
same,glycan array binding signal (z-score),[14],-0.201
same,glycan array binding signal (z-score),[15],-0.391
same,glycan array binding signal (z-score),[16],0.351
same,glycan array binding signal (z-score),[17],1.36
same,glycan array binding signal (z-score),[18],-0.043
